# In PubChem BioAssay AID463173 (ICCB-Longwood Screening Facility, Harvard Medical School, 2010):
# “And” between values parts separate entries of the source, which are not always exact repeats. Equal values may be shown once. In all, about 52,000 compounds went through this assay and about 1,700 (3.3%) were called active. Cut-off read from the data, not from the text of the source: active = survival mostly below about 52% (no sharp cut-off); inactive = mostly above about 56%. Some of the results follow.
# Test system: Wild type
# Assay: growth inhibition of S. aureus wild type versus tarO mutant, primary screen, teichoic acid synthesis inhibitors, RN4220, OD600 (AID 463173)
# Settings: S. aureus RN4220 wild type/DeltatarO growth, OD600, 18 h, hits give low values, screened at 18.75 µg/mL (by protocol)
row,SMILES,survival
1,CC(C)CNC(=S)N1CCC(c2nc(-c3ccc(F)cc3)no2)CC1,inactive: 114%
2,COc1ccc(CNC(=O)Cn2ccc3cc(S(=O)(=O)N4CCCCC4)ccc32)cc1OC,inactive: 72%
3,CC1Cc2ccccc2N1C(=O)Cn1nnc(-c2ccccc2F)n1 (configuration not stated),inactive: 114%
4,Cc1ccc(-n2c(=O)c3c4c(sc3n(Cc3cc(=O)n5ccccc5n3)c2=O)CCC4)cc1C,inactive: 151%
5,O=C1N(Cc2ccccc2Cl)c2ccccc2C1(O)c1c[nH]c2ccccc12 (configuration not stated),inactive: 84%
6,CC1=C(C(=O)OCC2CCCCC2)C(c2ccc(Cl)cc2)CC(=O)N1 (configuration not stated),inactive: 97%
7,CSc1ncc(C(=O)Nc2ccc(C)c(Cl)c2)c(-c2ccccc2)n1,inactive: 101%
8,CCOC(=O)c1cc(C)n(CC2CCC(C(=O)Nc3ccccc3OC)CC2)c1C (configuration not stated),inactive: 94%
9,NC(=O)CN1c2cccc3cccc(c23)S1(=O)=O,inactive: 98%
10,CCc1ccc(N(CC)C(=O)Cn2nc(Cc3cccnc3)c3ccccc3c2=O)cc1,inactive: 80%
11,CCOC(=O)c1sc2ccccc2c1S(=O)(=O)Nc1ccc(C(C)=O)cc1,inactive: 90%
12,Cc1cccc(Cn2c(=O)n(Cc3ccccc3)c(=O)c3c2c2cc(C)ccc2n3C)c1,inactive: 80%
13,CC(=O)c1ccc(NS(=O)(=O)c2c(C)nc3scc(C)n3c2=O)cc1,inactive: 79%
14,CCn1cc(C(=O)NCCc2ccc(OC)c(OC)c2)c(=O)c2cc(S(=O)(=O)N3CCCCCC3)ccc21,inactive: 130%
15,Cc1ccc2oc(-c3ccc(C)c(NC(=O)C(C)(C)Oc4ccc(Cl)cc4)c3)nc2c1,inactive: 43%
16,COc1ccccc1NC(=O)c1oc2ccccc2c1NC(=O)COc1cccc(C)c1,inactive: 85%
17,COc1ccc(Cl)cc1NC(=O)N(C)CCc1c(C)nn(C)c1C,inactive: 55%
18,Nc1c(C(=O)Nc2ccc(C(F)(F)F)cc2)sc2nc(-c3cccs3)ccc12,inactive: 89%
19,COc1ccccc1-c1nnc(C2CCN(S(=O)(=O)c3ccc(CC(C)C)cc3)CC2)o1,inactive: 51%
20,COc1cccc(-c2nc(SCc3cccc(Br)c3)n3[nH]c(=O)cc3n2)c1,inactive: 101%
21,O=C(CCc1ccccc1)NCc1ccc2c(c1)CCN2C(=O)c1ccccc1,inactive: 64%
22,CC(=O)N1CCc2c(sc3c2c(=O)n(CCc2ccccc2)c(=O)n3CC(=O)Nc2ccccc2F)C1,inactive: 78%

row,SMILES,survival
1,COc1ccccc1NC(=O)c1oc2ccccc2c1NC(=O)Cc1cccs1,inactive: 71%
2,Cn1cc(C(=O)O)c(=O)c2cc(S(=O)(=O)N3CCOCC3)ccc21,inactive: 76%
3,COc1ccccc1N1CCN(c2ccc(=O)n(CC(=O)Nc3cc(F)ccc3C)n2)CC1,inactive: 77%
4,CCOC(=O)c1cc(=O)n2[nH]c(-c3ccc(C)cc3)cc2n1,inactive: 107%
5,COc1cc2c(cc1OC)C(c1ccc(Cl)cc1)N(c1cccc(C#N)c1)C(=O)C2 (configuration not stated),inactive: 82%
6,COc1ccc(-n2c(SCC(=O)c3ccc(Cl)cc3)nc3c([nH]c4ccccc43)c2=O)cc1,inactive: 73%
7,COc1cccc(NC(=O)Cn2c(=O)n(-c3ccccc3)c(=O)c3ccc(C(=O)NCc4ccc5c(c4)OCO5)cc32)c1,inactive: 120%
8,Cn1cc(S(=O)(=O)N2CCCCCC2)cc1C(=O)N1CCN(c2ccccc2F)CC1,inactive: 68%
9,COc1ccc(CCNc2ncnc3onc(-c4ccc(Cl)cc4)c23)c(OC)c1,inactive: 75%
10,CCc1ccc(NC(=O)CN2C(=O)C3CCCN3c3ccc(S(=O)(=O)N(CC)CC)cc32)cc1 (configuration not stated),inactive: 129%
11,Cc1ccccc1Nc1sc(C(=O)c2ccccc2)c(N)c1S(C)(=O)=O,inactive: 96%
12,Cc1c(CC(=O)N2CCCCC2)c(=O)oc2cc(O)ccc12,inactive: 81%
13,Cc1ccc(N(CC(O)Cn2c3ccccc3c3ccccc32)S(=O)(=O)c2ccc(F)cc2)cc1 (configuration not stated),inactive: 92%
14,CCc1ccc(NC(=O)Cn2c(=O)n(CCCC(=O)NCc3ccccc3Cl)c(=O)c3ccccc32)cc1,inactive: 136%
15,Cc1cc(NC(=O)CSc2nc(-c3cccc(F)c3)nc3c2c(=O)n(C)c(=O)n3C)no1,inactive: 68%
16,COc1ccc2c(Sc3ccc(C)cc3)c(C(=O)NCC(C)c3ccccc3)[nH]c2c1 (configuration not stated),inactive: 95%
17,COc1cc(NS(=O)(=O)c2ccc3c(c2)CC(C)N3C(=O)C2CCC2)cc(OC)c1OC (configuration not stated),inactive: 94%
18,Cc1ccc(-c2nc3cc(NC(=O)Cc4ccc(Cl)cc4)ccc3o2)cc1,inactive: 80%
19,CCCNC(=O)Cn1nc(-c2ccc(C)c(C)c2)c2cnc3ccc(OC)cc3c21,inactive: 88%
20,COc1ccc(N(CC(=O)N2CCN(c3ccccc3F)CC2)S(=O)(=O)c2c(C)noc2C)cc1,inactive: 119%
21,COc1ccccc1-c1nc2c(c(SCc3cc(C)ccc3C)n1)Cc1c(CO)cnc(C)c1O2,inactive: 76%
22,Cc1ccc(CNC(=O)c2cc3c(=O)oc4ccc(C)cc4c3s2)cc1,inactive: 88%

row,SMILES,survival
1,COc1ccc2oc(=O)c(C(=O)NCCc3c(C)[nH]c4ccc(C)cc34)cc2c1,inactive: 61%
2,COc1ccccc1NC(=O)Cn1cnc2ccc(S(=O)(=O)N3CCC(C)CC3)cc2c1=O,inactive: 81%
3,COc1ccc(CNC(=O)c2cc3sccc3n2Cc2ccc(F)cc2)cc1,inactive: 95%
4,COCCCN1C(=O)c2[nH]nc(-c3cc(C)ccc3O)c2C1c1ccc(F)cc1 (configuration not stated),inactive: 92%
5,COc1ccc(NC(=O)Cn2c(=O)n(Cc3ccco3)c(=O)c3sc4ccccc4c32)c(OC)c1,inactive: 82%
6,Cc1ccc(NC(=O)C2CCCN(C(=O)c3cnn(-c4ccccc4)c3-n3cccc3)C2)cc1 (configuration not stated),inactive: 80%
7,CC(C)c1ccc(-c2noc(C3CCCN(C(=O)c4ccccc4)C3)n2)cc1 (configuration not stated),inactive: 117%
8,CCOC(=O)c1ccc(OC(=O)c2cn(-c3ccc(C)cc3)c(=O)c3ccccc23)cc1,inactive: 80%
9,Cc1cc(OCC(=O)N(Cc2ccc(N(C)C)cc2)Cc2ccco2)cc(C)c1Cl,inactive: 89%
10,Cc1nn(-c2ccccc2)c(-n2cccc2)c1C(=O)N1CCN(c2ccccc2)CC1,inactive: 86%
11,Cc1cccc(OCC(=O)Nc2ccc(S(=O)(=O)Nc3onc(C)c3C)cc2)c1C,inactive: 71%
12,Cc1ccccc1NC(=O)C(Cc1ccccc1)N1Cc2ccccc2C1=O (configuration not stated),inactive: 76%
13,O=C(Nc1noc2ccccc12)c1cccc(Cl)c1Cl,inactive: 89%
14,COc1ccc(CNCCC(c2ccc(C)cc2)c2ccco2)cc1 (configuration not stated),inactive: 72%
15,Cc1ccc2oc(=O)c3cc(C(=O)Nc4ccc(C)c(F)c4)sc3c2c1,inactive: 85%
16,COc1ccc(Cn2nnnc2C(c2cccs2)N2CCOCC2)cc1 (configuration not stated),inactive: 108%
17,CCc1nnc(NC(=O)CSc2nc3c([nH]c4ccccc43)c(=O)n2-c2ccc(F)cc2)s1,inactive: 91%
18,CC(O)C(=O)NS(=O)(=O)c1ccccc1 (configuration not stated),inactive: 97%
19,Cc1c(Cl)cccc1NC(=O)c1cc(S(=O)(=O)N2CCCCC2)cn1C,inactive: 80%
20,Cc1cccn2c(=O)cc(COc3ccc(NC(=O)C(C)C)cc3)nc12,inactive: 76%
21,Cc1ccc(-n2nc(C)c3c(C)cc(=O)n(CC(=O)Nc4cc(Cl)ccc4C)c32)cc1,inactive: 140%
22,Nc1ccc2oc(-c3ccccc3Br)nc2c1,inactive: 119% and inactive: 52%

row,SMILES,survival
1,O=C(O)CSc1nnnn1C1CCCCC1,inactive: 98%
2,Cc1ccccc1NC(=O)CSc1nc2ccc(NC(=O)CCc3ccccc3)cc2s1,inactive: 81%
3,COC(=O)c1sccc1S(=O)(=O)N(CC(=O)Nc1ccccc1C)c1ccc(Cl)cc1,inactive: 134%
4,Cc1nc(-c2ccc(S(=O)(=O)NCc3ccc(F)cc3)cc2)co1,inactive: 68%
5,COc1ccc(C(=O)NCc2nc(-c3cccc(C)c3)no2)cc1OC,inactive: 113%
6,Cc1cc(NS(=O)(=O)c2cn(C)c(C)n2)ccc1Br,inactive: 83%
7,COc1cccc(C(=O)COC(=O)c2cc(-c3cccs3)nc3ccccc23)c1,inactive: 63%
8,COCc1c(N)c(C)nc(Cl)c1C#N,inactive: 102%
9,COc1cccc(CNC(=O)CCc2c(C)nc3c4c(C)cc(C)nc4nn3c2C)c1,inactive: 81%
10,Cc1ccccc1OCC(=O)Nc1nnc(SCc2cc(=O)n3cc(Cl)ccc3n2)s1,inactive: 56%
11,CCc1ccccc1NC(=O)C1CCN(c2nc3ccccc3[nH]2)CC1,inactive: 80%
12,Cc1ccc(CCNc2nc3ccccc3c3nc(-c4cccnc4)nn23)cc1,inactive: 77%
13,Cc1ccc(-n2nc(C)c(C(=O)NCCCN3CCN(c4cccc(Cl)c4)CC3)c2-n2cccc2)cc1,active: -2%
14,Cc1ccc(C)c(CN2C(=O)c3ccccc3S(=O)(=O)c3ccc(C(=O)NCCc4ccc(Cl)cc4)cc32)c1,inactive: 132%
15,COc1ccc(CNC(=O)CN(C(=O)c2ccc(N3CCCC3)nc2)c2ccccc2C)cc1,inactive: 110%
16,CC(C)CCSc1nnc2n(-c3ccccc3)c(=O)c3c4c(sc3n12)CC(C)CC4 (configuration not stated),inactive: 76%
17,CCOC(=O)c1c(C)[nH]c(C)c1S(=O)(=O)NCC(=O)NCc1cccc(Br)c1,inactive: 134%
18,O=C(Nc1ccc(Oc2ccccc2)cc1)c1ccc(F)c(S(=O)(=O)N2CCN(c3ccccc3F)CC2)c1,inactive: 72%
19,Cc1cc(C)nc(-n2nc(C)c3c2N(Cc2ccccc2C)C(=O)CC3c2ccc(Cl)cc2)n1 (configuration not stated),inactive: 81%
20,COC(=O)c1ccccc1N(C)S(=O)(=O)c1cc2c3c(c1)CC(=O)N3CCC2,inactive: 80%
21,CCc1ccc(NC(=O)Cn2c(=O)nc(-c3ccccc3F)c3cc(Cl)ccc32)cc1,inactive: 89%
